This is one part of the list. At the low end of the ranking, values are background and their order means little. The protein was read in a cell extract, so binding may be indirect.

In the test the target is T1, HNF4alpha8 (COS-7 nuclear extract) (UniProt P41235-5).
T1 sequence: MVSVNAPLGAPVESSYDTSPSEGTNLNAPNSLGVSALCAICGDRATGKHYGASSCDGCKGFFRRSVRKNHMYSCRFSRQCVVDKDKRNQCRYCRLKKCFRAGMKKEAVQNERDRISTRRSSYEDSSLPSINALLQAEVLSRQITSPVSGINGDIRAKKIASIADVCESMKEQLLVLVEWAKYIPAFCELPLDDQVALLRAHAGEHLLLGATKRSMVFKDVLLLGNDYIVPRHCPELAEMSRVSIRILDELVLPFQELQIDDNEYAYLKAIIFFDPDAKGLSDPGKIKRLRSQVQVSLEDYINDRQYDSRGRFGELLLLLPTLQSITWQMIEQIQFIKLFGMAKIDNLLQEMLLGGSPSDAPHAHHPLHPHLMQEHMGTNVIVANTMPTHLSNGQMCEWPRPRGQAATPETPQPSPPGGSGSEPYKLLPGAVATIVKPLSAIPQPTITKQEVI
As to the kind of experiment: protein-binding microarray. Conditions: COS-7 nuclear extract on double-stranded Agilent 4x180k PBM; binding buffer, salt, pH and temperature not given; high values mean tight binding; double strand, one strand shown; sequences stand for … in …GCCTAGGGAGATTAGAGTATCGGTCGA
As to GGAGCCCCCTGGGGGAGGTTTCCTGCTGTC, the binding signal (log2 normalized intensity) was -1.37.

As for CCTTTTGTGTAGGAGTACACTCAGCACACC, the binding signal (log2 normalized intensity) came out at 1.36.

Turning to CAGGGATTATTAATTTACTGAAAAGTCTAC, the binding signal (log2 normalized intensity) was -0.369.

As for GGATTATGGAGATGGAGATGGCCTGGAGGT, the binding signal (log2 normalized intensity) is 0.909.

Take AATTATCCAGATCAAGGATTTTTTCTTGGA: the binding signal (log2 normalized intensity) was -1.28.

CGACCTGCTGGACGGGAGGAAAACTGGGCA: the binding signal (log2 normalized intensity) is -1.3.

Consider TAAAGGCTTTTAAAGGCTAGTGAAACATGC, for which the binding signal (log2 normalized intensity) was -1.34.

GGTCGAAAGGCAGGCAGTGGAGGGCTCCCT: the binding signal (log2 normalized intensity) was -1.37.

Consider TTTTCCACCCTCCCCTCCCCCTCCTCCCCT, for which the binding signal (log2 normalized intensity) was 7.22.

As for GCAAAGTGGCTAGGACCTTTGAACCAGAGA, the binding signal (log2 normalized intensity) was 5.24.

For GTCAGCTTCAGCCAGATAGCCACTGGGGTC, the binding signal (log2 normalized intensity) is 2.88.

Regarding CGCCCCCATTATCTCCTTAGGTACTTTTCT, the binding signal (log2 normalized intensity) worked out at 0.603.

As to GGACTCATTCTCCCCTGGAGTCTTAAATCC, the binding signal (log2 normalized intensity) is 0.808.

Consider TATCAGGTGGTGATGGTGGGAGGGAGGCTT, for which the binding signal (log2 normalized intensity) is -1.26.

On to AGGAGCCTTCCGGAGGCTCTGCTGAAGAGA, for which the binding signal (log2 normalized intensity) is -1.4.

With CCCAGGTACGGAGGACAGCCACCCGTGCTT, the binding signal (log2 normalized intensity) was -1.2.

For the sequence AAGCCCCAAATCTAGCATCAGTGAGTCAAG, the binding signal (log2 normalized intensity) is 0.898.

On to AGAAAGCAAAGTCCCTGGGGACAGGGATTA, for which the binding signal (log2 normalized intensity) was -1.24.

As to GAGTGGACTTTGGCTTATGCAAATGTTATG, the binding signal (log2 normalized intensity) is 4.89.

Take TTATCCCAAATGTTTGCACTGAGGAATGGA: the binding signal (log2 normalized intensity) amounted to 0.907.

As for CTGCAGATTCCACCTTAGAGGGACGAAGGT, the binding signal (log2 normalized intensity) is -1.37.

Take TGTGGTTATCTGTTGGGGAATCAGTCCATA: the binding signal (log2 normalized intensity) was 1.71.

For CCCCATCGCACGGCAGAACTGGTGACCGGA, the binding signal (log2 normalized intensity) was 2.02.

As for AAACGATGTGAGGTCTCTGCATACCAGGTA, the binding signal (log2 normalized intensity) is -1.26.

As to GTATCTAATCTCAGATATGCTAATTAACCC, the binding signal (log2 normalized intensity) came out at 1.45.

For the sequence CTGCCAGGGAGACAAAGTGTCACAAACTAT, the binding signal (log2 normalized intensity) is -1.34.

On to AAGAGCCGGCCGGCGGGGTCACGTGGGGCC, for which the binding signal (log2 normalized intensity) is 3.6.

Turning to AAGAGTCAAAGGGCAAAGGAATAAAATAGC, the binding signal (log2 normalized intensity) was found to be 1.46.

For the sequence TGAGAATCTGACCTTTGGTTAACTTCTTAA, the binding signal (log2 normalized intensity) was determined as 5.07.

As to TCCACTGTGTTCTTGTTTGCTAAGTGAGAA, the binding signal (log2 normalized intensity) amounted to 1.05.

With CAGTCTCAGTGGGCTAAACATCAAGACAGG, the binding signal (log2 normalized intensity) is -1.19.

On to CCTAATGGGGTACTTGAACCCTACTCATAA, for which the binding signal (log2 normalized intensity) is 2.63.

In the case of TATGTGAGTACACACTGTAAAATTTCATGG, the binding signal (log2 normalized intensity) turned out to be 1.06.

With AGGTAATGGTCTCTCCCAGCGGGTCATTAA, the binding signal (log2 normalized intensity) came to 1.86.

Take AGTTTTGCAACATACTGAAAAAGGGTTGTG: the binding signal (log2 normalized intensity) came to 1.23.

As for CGTAATCCCAGCTTATGTTTGCAAGTCGAG, the binding signal (log2 normalized intensity) was 1.13.

Turning to GGGGCGCGGCCTAATGCCTGGGAAAATGTT, the binding signal (log2 normalized intensity) is -0.928.

With GGGAGCAGTGGGCATATCTTTTTATCTCTG, the binding signal (log2 normalized intensity) was -0.397.

For the sequence GGAATGCAGCTCAGACTGCTTCTCTGCTGG, the binding signal (log2 normalized intensity) was -1.23.

As for AACCTCAGTGTTTGCTCCTAAGGCCTTCAA, the binding signal (log2 normalized intensity) was found to be 0.000503.

On to AAGGAGAGGGGGCGGGGAGAGGGAAGAGTC, for which the binding signal (log2 normalized intensity) was -1.4.

Turning to AGGGGCCCACCTCCACTCTCATAAAAGAGG, the binding signal (log2 normalized intensity) is -1.24.

As for TCTTTGCCCCAGCTCGCTCAGCTGGTTGCC, the binding signal (log2 normalized intensity) was -0.997.

Consider TACCTAGGAATGCTATCTAGCATGACAAGA, for which the binding signal (log2 normalized intensity) is -1.17.

On to AATGGAGAGGATTTTGGAATGTCGCATAGC, for which the binding signal (log2 normalized intensity) is -1.14.

As for ACTTCCTTCAAACCTGGGAAAACTTACGCA, the binding signal (log2 normalized intensity) was -1.3.

With TTGAATAGCATTTTGCAGAGACGGCAAGCC, the binding signal (log2 normalized intensity) was -1.33.

Turning to ATGCCAAAGAAGCAAAGGTTGGCTAAAGAT, the binding signal (log2 normalized intensity) was found to be 0.479.

Regarding ATTACCCTATGTCCCCCGACCCGCCCGACT, the binding signal (log2 normalized intensity) is 5.78.

Turning to AATCATCGCACCTAAGGGCACCCTTCCTGC, the binding signal (log2 normalized intensity) is -1.48.

For the sequence AAAAGTAGATTGTTATTTACCCTACATGGC, the binding signal (log2 normalized intensity) stood at 0.365.

As to CCAATAGACATAACTCAAACATCTGACAGA, the binding signal (log2 normalized intensity) is -1.3.

Turning to ACCTGACCCAGGCGAGGGTTGCTGCACCGA, the binding signal (log2 normalized intensity) was -1.28.

As to ACAGCGCCGCCACCCGGTTGGCGCCAATAC, the binding signal (log2 normalized intensity) is -1.33.

For TCAGTTGCAGAAAAACAGGTTCTGCAACAC, the binding signal (log2 normalized intensity) is 0.876.

For GAGACTCTCTCTCCTCTCCAGCCCATCCTA, the binding signal (log2 normalized intensity) amounted to 2.13.

As to ATTTTCCCATGGTCTGTAGAAGGCGCTGTG, the binding signal (log2 normalized intensity) was -0.848.

Consider GGAAGTGGCTAGAGGTCGCGAGAGAACTGA, for which the binding signal (log2 normalized intensity) was -1.3.

For AGCCTCTCACAGTAGCCCAGGTCCTTTGGT, the binding signal (log2 normalized intensity) is 0.598.

ACCCTCAGACACACAGTCCACAGGCTATAG: the binding signal (log2 normalized intensity) was -0.795.

TCACTGTGAAGACGTTAGGGGGCAGCAGGG: the binding signal (log2 normalized intensity) is -0.0779.

Consider GAGGAGACCTTTGGATATCATATCATCTTC, for which the binding signal (log2 normalized intensity) was found to be 2.39.

Regarding TCCATTTAGCTTCAGTCTAAATGATGGCCA, the binding signal (log2 normalized intensity) is 1.76.

Regarding CCAAATCATGGAGGTGTGGGGAGTTCCTTC, the binding signal (log2 normalized intensity) is -0.926.

Consider AAGGTTTGTTCTTATCATGCTGTCTCTGAA, for which the binding signal (log2 normalized intensity) came out at 0.778.

Take GTGCCTCAACCGAGCGTCCAAGCTCTTTCC: the binding signal (log2 normalized intensity) was -1.24.

On to TTTAAAAAAATTCCTCCTTGGATTCCTAAG, for which the binding signal (log2 normalized intensity) is -1.35.

For GTGTGGCAGAAAACGCAATTGCCCTACAGC, the binding signal (log2 normalized intensity) was found to be 1.24.

As for TTAACTGGACAAGGAGGCTGGGCTGCATAG, the binding signal (log2 normalized intensity) is -1.16.

For the sequence GGAGCTGCCGCAACATTGTCCAGCAGACAC, the binding signal (log2 normalized intensity) is -1.35.

ATCTCAGCTCACTGTAACCTTTGCCCCCCT: the binding signal (log2 normalized intensity) came to 9.22.

Turning to TCCTAAACCCCACAGAACAAACAGTACATT, the binding signal (log2 normalized intensity) is 1.27.

With GCGCCGGGGAAGCTGTTGGGCGCCGGAACT, the binding signal (log2 normalized intensity) is -1.3.

(Values after publication PMC10726135.)
